# PubChem BioAssay AID1347165 (National Center for Advancing Translational Sciences (NCATS), 2019)
# Out of some 220,000 compounds screened, about 5,700 (2.6%) were called active. Inconclusive results, whose numbers are uncertain, are shown with a selection of clear calls. The call rests on the fitted dose curve; in most records, active means well fitted inhibition curve with a large enough effect; inconclusive means small, poorly fitted or top-dose-only effect; inactive means no such curve, though single readings can be large or run the other way. Potencies of inconclusive entries are doubtful fits and often do not repeat.
# Molecular target: Lysine-specific demethylase 5B (Homo sapiens) (UniProt Q9UGL1)
# Chain of UniProt Q9UGL1 (Q9UGL1 whole entry, looked up): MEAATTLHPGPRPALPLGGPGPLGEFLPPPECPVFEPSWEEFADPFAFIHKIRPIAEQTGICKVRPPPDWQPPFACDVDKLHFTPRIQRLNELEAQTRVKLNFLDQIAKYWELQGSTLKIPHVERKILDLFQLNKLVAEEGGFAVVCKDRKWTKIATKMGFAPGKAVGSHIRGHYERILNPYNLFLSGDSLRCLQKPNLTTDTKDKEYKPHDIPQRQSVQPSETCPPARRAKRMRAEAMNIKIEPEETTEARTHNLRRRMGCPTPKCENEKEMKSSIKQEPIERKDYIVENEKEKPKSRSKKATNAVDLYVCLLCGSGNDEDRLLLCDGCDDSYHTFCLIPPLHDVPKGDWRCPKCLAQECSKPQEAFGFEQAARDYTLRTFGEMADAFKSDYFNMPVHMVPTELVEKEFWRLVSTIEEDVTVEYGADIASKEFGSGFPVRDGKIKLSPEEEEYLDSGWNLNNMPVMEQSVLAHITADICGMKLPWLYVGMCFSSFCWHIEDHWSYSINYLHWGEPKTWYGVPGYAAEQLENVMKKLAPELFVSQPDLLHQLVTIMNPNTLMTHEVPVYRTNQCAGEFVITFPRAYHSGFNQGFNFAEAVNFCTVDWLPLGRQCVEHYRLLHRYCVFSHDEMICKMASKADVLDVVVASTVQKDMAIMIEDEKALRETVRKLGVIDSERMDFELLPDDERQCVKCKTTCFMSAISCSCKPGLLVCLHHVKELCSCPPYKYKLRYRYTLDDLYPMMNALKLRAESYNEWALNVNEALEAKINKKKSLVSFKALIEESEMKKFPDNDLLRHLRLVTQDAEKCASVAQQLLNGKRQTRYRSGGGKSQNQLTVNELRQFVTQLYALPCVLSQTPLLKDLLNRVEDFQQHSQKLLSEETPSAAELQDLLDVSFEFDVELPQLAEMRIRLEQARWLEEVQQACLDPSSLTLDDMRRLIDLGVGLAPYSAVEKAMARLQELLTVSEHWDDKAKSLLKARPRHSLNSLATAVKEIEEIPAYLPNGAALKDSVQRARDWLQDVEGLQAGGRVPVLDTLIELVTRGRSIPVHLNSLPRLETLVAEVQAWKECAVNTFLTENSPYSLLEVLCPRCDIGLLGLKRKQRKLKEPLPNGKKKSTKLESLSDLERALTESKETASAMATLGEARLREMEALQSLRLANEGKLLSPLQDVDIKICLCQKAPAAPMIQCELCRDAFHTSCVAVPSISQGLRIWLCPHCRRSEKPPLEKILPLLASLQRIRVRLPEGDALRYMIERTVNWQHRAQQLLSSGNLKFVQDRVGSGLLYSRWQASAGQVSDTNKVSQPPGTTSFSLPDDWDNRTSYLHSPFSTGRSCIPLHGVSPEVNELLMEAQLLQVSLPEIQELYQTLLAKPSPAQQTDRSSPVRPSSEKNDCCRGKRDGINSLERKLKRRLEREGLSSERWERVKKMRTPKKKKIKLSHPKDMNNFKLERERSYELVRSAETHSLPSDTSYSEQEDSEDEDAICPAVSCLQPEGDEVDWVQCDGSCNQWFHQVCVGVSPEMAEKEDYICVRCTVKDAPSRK
# Test: Primary screen for KDM5B Histone Demethylases FDH-coupled qHTS; further: nearly all actives have a fitted effect of over 70% in size; on activity change, negative = inhibition: 0% is about no effect
# Conditions: FDH-coupled NADH fluorescence (FDH is formaldehyde dehydrogenase); activity change, negative = inhibition: at 57.7 µM (top of the series) unless noted
# Summary of the method: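 Here, H3K4me3 peptide (12.5 µM in substrate mix) is demethylated by KDM5BΔAP, 200 nM final, after 10 min compound exposure. Formaldehyde product is coupled through FDH (0.25 U/mL in mix) to NADH fluorescence; 30-min ΔRFU feeds dose-response curves.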
# Potency means the concentration at half of the fitted maximal effect; tags describe the fitted curve by direction and shape.
Compound,Potency,"activity change, negative = inhibition"
Cc1ccc(C)c(C(=O)C(C)n2cnc3c2c(=O)n(C)c(=O)n3C)c1 (stereo unspecified),inactive,–
CCCCOC(=O)c1ccc(NC(=O)c2cc(=O)c3cc(C)c(C)cc3o2)cc1,inactive,–
O=c1c2nnn(-c3ccc(F)cc3)c2ncn1Cc1nc(-c2ccccc2)no1,inactive,–
CC(C)Sc1oc(-c2ccco2)nc1S(=O)(=O)c1ccc(F)cc1,"inconclusive: 17.8 µM [inhibitor, partial curve, poor fit]",–
Cc1cnc(CC2CCN(C(=O)c3cccc4[nH]ccc34)CC2)n1CC1CC1,active: 22.4 µM,–
O=C(Nc1ccc(F)c(F)c1)c1cc(-c2ccco2)nc2ccccc12,"inconclusive: 39.8 µM [inhibitor, single point]",–
CCn1c(SCC(=O)Nc2cc(C)c(Cl)cc2OC)nnc1-c1ccccc1,inactive,–
Cc1ccc(CN2CCCN(Cc3c(C)cc(C)cc3C)S2(=O)=O)cc1,"inconclusive: 25.1 µM [inhibitor, single point]",–
COc1ccc2nc(C[C@@H]3C[C@@H](C(C)C)[C@H](CNC(=O)CC(C)(C)CC(=O)O)C=C3C)[nH]c2c1,"inconclusive: 15.8 µM [inhibitor, partial curve, poor fit]",–
CC(C)CCNC(=O)N1CCC2(CC1)CC(N(Cc1ccc(F)cc1)C1CC1)CCO2 (stereo unspecified),inactive,–
CCN1CCN(CC2CCCN2)CC1 (stereo unspecified),inactive,–
COc1ccc(NC(=O)NS(=O)(=O)c2ccc(C)cc2)cn1,"inconclusive: 31.6 µM [inhibitor, single point]",–
COc1ccc(-c2cc(C(=O)N3CCCC3)c3ccccc3n2)cc1OC,"inconclusive: 35.5 µM [inhibitor, single point]",–
CC(Sc1ccc2ccccc2n1)C(=O)NC1(C#N)CCCCC1 (stereo unspecified),"inconclusive: 1.78 µM [inhibitor, full curve, poor fit]",–
CCCCCSc1ccc(/C=C/C(=O)O)cc1,"inconclusive: 35.5 µM [inhibitor, partial curve, poor fit]",–
Cc1ccc(CNC(=O)c2cc3c(N(C)Cc4ccccc4)nc(C)cn3n2)cc1,active: 28.2 µM,–
CC1CCN(C(=O)CCC[C@H]2NC[C@@H]3C[C@H]2CN(Cc2ccccc2)C3)CC1,active: 7.94 µM,–
Cc1ccc(-c2noc(-c3nc(Cc4ccc(F)cc4)no3)n2)cc1,inactive,–
CCCn1ccc2sc(C)c(C(=O)NCCC3=CCCCC3)c2c1=O,"inconclusive: 22.4 µM [inhibitor, single point]",–
O=C(CN1C(=O)COc2ccccc21)N1CCN(C2CCCCC2)CC1,–,inconclusive: -31.6% [inhibitor]
Cc1ccc(CN2CCN(c3nc4c(c(=O)[nH]c(=O)n4C)n3Cc3ccc(C)cc3)CC2)cc1,inactive,–
O=C(COc1ccccc1F)Nc1c(C(=O)Nc2cccc(F)c2)oc2ccccc12,"inconclusive: 7.08 µM [inhibitor, partial curve, poor fit]",–
c1ccc(Cn2ccnc2)c(CNC2CCCCCC2)c1,inactive,–
CN(Cc1ccccc1)C(=O)COC(=O)c1cc2ccccc2oc1=O,"inconclusive: 22.4 µM [inhibitor, partial curve, poor fit]",–

Compound,Potency,"activity change, negative = inhibition"
CN1Cc2cccn2CC1CNC(=O)C1(S(=O)(=O)c2ccc(Cl)cc2)CC1 (stereo unspecified),active: 14.1 µM,–
COc1cccc(CN2CC[C@H]3C(=O)NCCCCCCN(Cc4ccncc4)[C@@H]3C2)n1,active: 20 µM,–
Cc1noc(-c2ccc3c(c2)OCO3)c1C(=O)NCCc1cccc(Cl)c1,active: 28.2 µM,–
CCCn1cc(S(=O)(=O)c2ccc(OC)cc2)c(=O)c2cc(F)c(N3CCCC(C)C3)cc21 (stereo unspecified),"inconclusive: 3.55 µM [inhibitor, partial curve, poor fit]",–
COc1ccc(Nc2oc(-c3ccccc3C)nc2C#N)cc1,inactive,–
Cc1ccc(S(=O)(=O)Cc2nc(-c3ccc(C(=O)NCc4ccccc4C)cc3)oc2C)cc1,"inconclusive: 25.1 µM [inhibitor, partial curve, poor fit]",–
N#Cc1ccccc1CN1CCCCC1c1nc(CCOCC2CCCC2)no1 (stereo unspecified),inactive,–
Cc1ccn2c(C(=O)N3CCCn4nc(C(O)CO)cc4C3)nnc2n1 (stereo unspecified),active: 31.6 µM,–
CC(C)n1cnnc1-c1nn(C)c2c1CN(C(=O)Cc1c[nH]c3ccccc13)CC2,active: 20 µM,–
Cc1noc(C)c1-c1cc2c(cc(C)n2C)c(N2CCN(Cc3ccccc3)CC2)n1,"inconclusive: 56.2 µM [inhibitor, single point]",–
COc1ccc(-c2cc(C)no2)cc1S(=O)(=O)NCc1ccco1,"inconclusive: 3.55 µM [inhibitor, partial curve, poor fit]",–
O=c1c2ccccc2c(-c2cccs2)nn1CC(O)COCc1ccccc1 (stereo unspecified),inactive,–
COc1ccc(Cn2c(=O)n(-c3ccc(OC)cc3)c(=O)c3c2c2cc(OC)ccc2n3C)cc1,"inconclusive: 28.2 µM [inhibitor, partial curve, poor fit]",–
Cc1cc(OC(C)C(=O)NCCCO)c2c(C)c(C)c(=O)oc2c1 (stereo unspecified),"inconclusive: 25.1 µM [inhibitor, partial curve, poor fit]",–
O=C(O)COCC(=O)Nc1ccc(-n2nc(C(F)(F)F)cc2-c2cccs2)cc1,"inconclusive: 25.1 µM [inhibitor, partial curve, poor fit]",–
NC(=O)c1ccsc1NC(=O)COC(=O)c1c(F)cccc1F,inactive,–
O=C(NC[C@H]1O[C@H](Cc2cc(-c3ccccc3)on2)CC[C@@H]1O)c1ccccc1F,inactive,–
Cc1ccc(C)c(OCCn2cc(C(=O)C(F)(F)F)c3cc(Br)ccc32)c1,inactive,–
CCOc1ccccc1CNCc1ccco1,inactive,–
O=C(NCc1ccc(Cl)cc1)C1CCN(c2ncnc3c2nc2n3CCCCC2)CC1,–,inconclusive: -52.4% [inhibitor]
CCCNC(=O)NCc1cccn1Cc1cc(C)ccc1C,"inconclusive: 8.91 µM [inhibitor, partial curve, poor fit]",–
O=C1OCCN1S(=O)(=O)Nc1ccccc1,"inconclusive: 39.8 µM [inhibitor, single point]",–
COc1ccc(CN2C(=O)CO[C@H]3CN(c4ccc(C#N)cn4)C[C@H]32)cc1,"inconclusive: 35.5 µM [inhibitor, partial curve]",–
COc1ccc(Cl)cc1C(=O)NCc1nnnn1-c1ccccc1,inactive,–

Compound,Potency,"activity change, negative = inhibition"
CC(=O)[C@@H]1[C@@H](C(=O)c2ccc(F)cc2)[C@]2(C(=O)Nc3ccccc32)[C@H]2C=Cc3cc(F)ccc3N12,"inconclusive: 14.1 µM [inhibitor, partial curve, poor fit]",–
O=C(Nc1sc2c(c1C(=O)NCc1ccccc1)CCCC2)c1cc(=O)c2ccccc2o1,inactive,–
COc1nnc(-c2ccc(N3CCCCC3)c(NC(=O)c3ccccc3Cl)c2)c2ccccc12,"inconclusive: 31.6 µM [inhibitor, partial curve, poor fit]",–
COc1cccc(N2CCN(C(=O)Cn3nc(C)n4c(cc5c(OC)cccc54)c3=O)CC2)c1,"inconclusive: 28.2 µM [inhibitor, partial curve, poor fit]",–
COCc1cc(C)nc2c1C(=O)NC(c1ccc(Br)cc1)N2Cc1ccccc1 (stereo unspecified),"inconclusive: 6.31 µM [inhibitor, partial curve, poor fit]",–
O=C(Nc1cccc(C(F)(F)F)c1)N1CCC(N2CC3CC(C2)[C@H]2CCCC(=O)N2C3)CC1 (stereo partly specified),"inconclusive: 25.1 µM [inhibitor, partial curve]",–
Cc1cc(I)c(-c2c(I)cc(C)c(N)c2C)c(C)c1N,"inconclusive: 39.8 µM [inhibitor, single point]",–
COc1ccc2c(C)c(CCC(=O)NCCCN3CCOCC3)c(=O)oc2c1C,"inconclusive: 28.2 µM [inhibitor, partial curve, poor fit]",–
CC1CCN(c2nc(SCCO)c(C#N)c3c2CCCC3)CC1,"inconclusive: 39.8 µM [inhibitor, single point]",–
CCC1Oc2ccc(NC(=O)c3cccc(F)c3)cc2CN(Cc2ccccc2F)C1=O (stereo unspecified),"inconclusive: 39.8 µM [inhibitor, single point]",–
COCCn1ccc2c(C3=CCOCC3)nc(-c3cccc(O)c3)cc21,active: 39.8 µM,–
O=C(Nc1ccc(F)cc1)c1c[nH]c2cccnc12,inactive,–
Cn1nc(C(=O)N2CCCN(Cc3ccccc3)CC2)c2ccccc2c1=O,inactive,–
Cc1nc(N2CCN(C(=O)C(N)=O)CC2)c(C#N)c2c1CCCC2,"inconclusive: 25.1 µM [inhibitor, partial curve, poor fit]",–
CCOC(=O)c1[nH]c2c(c1Cc1ccccc1OC)C(=O)CC(c1ccccc1)C2 (stereo unspecified),"inconclusive: 2 µM [inhibitor, full curve, poor fit]",–
CCCc1ccc(-c2csc(NC(=O)c3cnc4c(c3)c(=O)n(C)c(=O)n4C)n2)cc1,inactive,–
CCCCn1cc(S(=O)(=O)c2ccccc2)c(=O)c2cc(CC)ccc21,inactive,–
COC(=O)C1=C(C)N=C2SC=C(CC(=O)NCC3CC3)N2C1c1ccccc1OC (stereo unspecified),"inconclusive: 28.2 µM [inhibitor, partial curve]",–
Cc1ccc2nc(C)cc(C(=O)O)c2c1,inactive,–
CC1=NOC2(CCN(Cc3ccc(N(C)C)cc3)C2)C1 (stereo unspecified),"inconclusive: 31.6 µM [inhibitor, single point]",–
CC1CCCN(CC2CCCN2)C1 (stereo unspecified),"inconclusive: 14.1 µM [inhibitor, partial curve, poor fit]",–
CONC(=O)COc1ccc(C)cc1C,inactive,–
COCCc1nn2c(=O)cc(COC(=O)c3ccccc3C)nc2s1,inactive,–
